This note sets out measurements from the supplement of paper PMC5655136.

Values come from read counts of a selection and are noisy.
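Also: shRNA barcodes quantified by deep sequencing of PCR amplicons from cellular DNA, counts expressed as percent of each subpool, ratio averaged over two biological duplicates.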

This data set has as its system NB7. Kind of data set: fold depletion of shRNA, plasmid library share / infected cells without Dox share (9 days) (ratio); higher = more depleted after infection (more toxic, leaky expression from a Tet-inducible vector; NB7 is a neuroblastoma line without caspase-8). The settings on record: shRNA pool: CD95 ORF + CD95 3'UTR + Venus libraries.
For the sequence AGAACACCCCCATCGGCGACG, the “fold depletion of shRNA” value was 0.931.
As to ACAGTTGAGACTCAGAACTTG, the “fold depletion of shRNA” value was 2.79.
As for AAAAGTACGTAATTAAATAAT, the “fold depletion of shRNA” value came to 0.917.
Regarding GCCCCGTGCTGCTGCCCGACA, the “fold depletion of shRNA” value was determined as 0.683.
Regarding TATGAATCAATAGAAGAAGCT, the “fold depletion of shRNA” value was 0.791.
The result for GCATGGACGAGCTGTACAAGT reads 0.676.
Turning to CTGAAGGGCATCGACTTCAAG, the “fold depletion of shRNA” value stood at 0.854.
With GACCTTTGCACAGTTTATTGG the figure was 0.866.
On to CAGCAGAACACCCCCATCGGC, for which the “fold depletion of shRNA” value was determined as 1.27.
As for AGGAGTGTATGCAGAGGATGA, the “fold depletion of shRNA” value stood at 5.13.
In the case of CAGTCAATGGGGATGAACCAG, the “fold depletion of shRNA” value is 3.14.
As for AGTGCAGATGTAAACCAAACT, the “fold depletion of shRNA” value came out at 1.47.
Take CCCACCCTCGTGACCACCCTG: the “fold depletion of shRNA” value is 1.6.
Consider TGTCTATCCACAGGCTAACCC, for which the “fold depletion of shRNA” value was determined as 7.14.
Turning to TTATCATTTATTAGCGCTGAA, the “fold depletion of shRNA” value worked out at 1.87.
Turning to GACACAGCAGAACAGAAAGTT, the “fold depletion of shRNA” value is 1.79.
Take TGTACTCTTGCAGAGAAAATT: the “fold depletion of shRNA” value came out at 0.81.
ACATGAAGCAGCACGACTTCT: the “fold depletion of shRNA” value was 1.98.
Regarding CTCAAAAAAGCCAATCTTTGT, the “fold depletion of shRNA” value amounted to 1.43.
In the case of CTGGACGGCGACGTAAACGGC, the “fold depletion of shRNA” value turned out to be 0.742.
Take CATATTATACAATATTTCAAT: the “fold depletion of shRNA” value came out at 0.837.
In the case of GTTGGGAAAACAAACTTCATC, the “fold depletion of shRNA” value stood at 2.41.
Regarding AAAATATAGGTAAAAGTACGT, the “fold depletion of shRNA” value is 2.06.
With TTCAAGGAGGACGGCAACATC the figure was 1.26.
Turning to AAAGACCTTTGCACAGTTTAT, the “fold depletion of shRNA” value was 4.03.
Turning to CCCTTAGAAATTCTAGCCTGG, the “fold depletion of shRNA” value was determined as 2.4.
As to AGATTTAAGATTCTCCTTACT, the “fold depletion of shRNA” value was found to be 1.69.
As to GACGGCAACATCCTGGGGCAC, the “fold depletion of shRNA” value was 0.66.
With AGTGTTAATGCCCAAGTGACT the figure was 2.2; with ACTTCTTCAAGTCCGCCATGC, 1.43; with ATACTTAATAGTCCACCAAAA, 1.02.
Regarding AGATTAAGATTATGCTCTGGC, the “fold depletion of shRNA” value worked out at 1.31.
For the sequence CACTCTCGGCATGGACGAGCT, the “fold depletion of shRNA” value was determined as 1.19.
The result for ATCAAGAGTAAATGCAGTGGC reads 3.98.
With AATGGCAGCTTATACATAGCA, the “fold depletion of shRNA” value stood at 1.67.
In the case of TAACATATGATTCTGTAGTAT, the “fold depletion of shRNA” value was found to be 1.74.
With TTCTTCAAGTCCGCCATGCCC the figure was 1.86.
For TCTGTTGCTAGATTATCGTCC, the “fold depletion of shRNA” value was 1.02.
On to TCATGATGGCCAATTCTGCCA, for which the “fold depletion of shRNA” value was 1.
For the sequence GTACATTTTATCATTTATTAG, the “fold depletion of shRNA” value is 1.94.
With CAGTGGCAATAAATTTATCTG the figure was 0.812; with AGCACGACTTCTTCAAGTCCG, 1.15.
As to TATGTGAACACTGTGACCCTT, the “fold depletion of shRNA” value was 2.71.
Turning to AATTGAGGAAGACTGTTACTA, the “fold depletion of shRNA” value came out at 0.891.
With AAAGCCAATCTTTGTACTCTT, the “fold depletion of shRNA” value is 0.939.
The result for AAGTGGAAATAAACTGCACCC reads 3.82.
Take CCCGCTACCCCGACCACATGA: the “fold depletion of shRNA” value was found to be 1.
In the case of GATCACTCTCGGCATGGACGA, the “fold depletion of shRNA” value was found to be 2.06.
With GCGTGCCCTGCCAAGAAGGGA the figure was 0.805; with CCCGAAAATGTTCAATAATGT, 0.659; with GTAAACGGCCACAAGTTCAGC, 2.23.
Regarding CGACTTCTTCAAGTCCGCCAT, the “fold depletion of shRNA” value came to 2.38.
Turning to AGAAAATTCAGACTATCATCC, the “fold depletion of shRNA” value was 1.87.
Turning to CAAGTGCAAAGAGGAAGGATC, the “fold depletion of shRNA” value amounted to 1.83.
As for TTATAACTCTGAGAAGATCAT, the “fold depletion of shRNA” value amounted to 0.577.
For the sequence CTCATGATTCTGCCTCCAAGG, the “fold depletion of shRNA” value is 22.3.
On to CATGTAAAACCTGCTACAAAT, for which the “fold depletion of shRNA” value worked out at 1.43.
For the sequence CATCATCTGGATTTAGGAATT, the “fold depletion of shRNA” value was 0.69.
With TTCAAGATCCGCCACAACATC the figure was 0.776; with CTTAGAAATTCTAGCCTGGTT, 1.27.
TCAAACTTCAGAAATGAAATC: the “fold depletion of shRNA” value was determined as 0.865.
On to AGATTTTTAATATCTCATGAT, for which the “fold depletion of shRNA” value was 0.78.
Consider TATATGTATTTGAGTGCAGAA, for which the “fold depletion of shRNA” value amounted to 1.57.
For the sequence CCAGGAGCGCACCATCTTCTT, the “fold depletion of shRNA” value worked out at 1.66.
The result for CCAAACATGGAAATATCACCA reads 1.71.
On to TGTCCTCCAGGTGAAAGGAAA, for which the “fold depletion of shRNA” value amounted to 1.27.
Consider GTTAAAGGCTTTGTTCGAAAG, for which the “fold depletion of shRNA” value is 3.95.
For TAGAGTGAAAAACAACAAATT, the “fold depletion of shRNA” value turned out to be 0.592.
The result for TATCTTTGAAAGTTTGTATTA reads 0.873.
AACTTGGAAGGCCTGCATCAT: the “fold depletion of shRNA” value was 2.57.
